Laboratory results from PubChem BioAssay AID1345083 (National Center for Advancing Translational Sciences (NCATS), 2018).
Screen size: about 94,000 compounds; about 6,200 (6.6%) were called active. This list was built around the results that the source calls inconclusive (neither active nor inactive); the mix of calls is not that of the screen. Calls come from the whole dose curve; as a rule, active = well fitted inhibition curve with a large enough effect; inconclusive = small, poorly fitted or top-dose-only effect; inactive = flat fitted curve, though single readings scatter. Potencies of inconclusive entries are doubtful fits and often do not repeat.

Test: Cytotoxic Profiling in HEK 293 Cell Line of Diverse Libraries Using Quantitative High-Throughput Screening; note: nearly all actives have a fitted effect of over 60% in size
Conditions: HEK 293 viability, ATP luminescence (CellTiter-Glo), 48-72 h; series mostly up to 115 µM
Outline: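 Read-out: CellTiter-Glo ATP luminescence. Cells: HEK 293, 250 cells/well. Exposure: 48 or 72 hr, 37 degree Celsius.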
Potency is the fitted concentration of half-maximal effect; tags give direction and shape of the fitted curve.

| SMILES | Potency |
| --- | --- |
| COc1cccc(NC(=O)N2CC(c3nnc(-c4ccncc4)o3)C3(CCOCC3)C2)c1 (stereo not drawn) | inactive |
| Cc1cc(C)cc(NC(=O)N2CCC(CCc3nc(C4CCOCC4)no3)CC2)c1 | inconclusive: 79.4 µM [inhibitor, partial curve, poor fit] |
| Cc1cn2nc(C(=O)NC(C)c3ccccc3)cc2c(N2CCCC2)n1 (stereo not drawn) | inconclusive: 89.1 µM [inhibitor, single point] |
| O=C(NCc1cccc(Cl)c1)c1cc2n(n1)CC(c1ccc3c(c1)OCO3)OC2 (stereo not drawn) | inconclusive: 56.2 µM [inhibitor, partial curve, poor fit] |
| C[C@@H]1CN(S(=O)(=O)c2ccccc2)CC[C@@]1(O)C1CCOCC1 | inactive |
| COc1ccc(C(=O)N2CCCN(c3ccc4nnc(-c5ccccc5)n4n3)CC2)cc1 | inconclusive: 50.1 µM [inhibitor, partial curve, poor fit] |
| CC1(C(=O)NCCCN2CCCc3ccccc32)CCCCC(=O)N1 (stereo not drawn) | inconclusive: 89.1 µM [inhibitor, single point] |
| O=C(c1ccsc1)N1CCn2c(nnc2[C@@H]2C[C@@H](O)CN2Cc2ccccc2)C1 | inconclusive: 89.1 µM [inhibitor, single point] |
| O=C(C[C@@H]1CCNC[C@@H]1Cc1cc(CSc2ccccc2)on1)NCCN1CCOCC1 | inactive |
| COc1ccc(C(=O)Nc2ccc3c(c2)CN(Cc2ccc(OC)cc2OC)C(=O)C(C)O3)cc1 (stereo not drawn) | inconclusive: 79.4 µM [inhibitor, single point] |
| Cc1cccc(Cl)c1NC(=O)Cn1c(C)cc2nc3n(c(=O)c21)CCCCC3 | inactive |
| O=C(C1CCN(c2nc(-c3ccccc3)nc3c2CCC3)CC1)N1CCC(CO)C1 (stereo not drawn) | inactive |
| Cc1cccc(C)c1-c1nnc2ccc(C(=O)NCC3CC3)cn12 | inactive |
| CC(C)[C@@H]1CN(S(=O)(=O)c2ccc(Cl)cc2Cl)C[C@H]1N(C)C | inconclusive: 79.4 µM [inhibitor, partial curve] |
| O=C(Cc1ccccc1)NC1CCN(c2cc(-c3ccccc3)[nH]n2)CC1 | inconclusive: 89.1 µM [inhibitor, single point] |
| COc1ccc(C)cc1NC(=O)N1CCC(OC2CCN(Cc3ccccc3)CC2)CC1 | inactive |
| O=C(Nc1ncc(-c2cccc(F)c2)c2c1OCC2)c1ccc(F)c(Cl)c1 | active: 35.5 µM |
| COc1cccc(OCc2nc3c(n2Cc2ccccc2)C(=O)N(Cc2ccccc2C#N)CCN3)c1 | inconclusive: 35.5 µM [inhibitor, full curve, poor fit] |
| COc1cccc(CN2CCOC3(CCN(Cc4cccc(Cl)c4)CC3)C2=O)c1 | active: 79.4 µM |
| CCC(CC)C(=O)N1C[C@@H]2CCCN3CCC[C@@H]([C@H]23)[C@H]1CCCC(=O)N1CCOCC1 | inactive |
| Cc1ccc(NC(=O)N2CCCC(Cn3cnc4cccnc43)C2)c(C)c1 (stereo not drawn) | inactive |
| COc1ccc(F)cc1-c1cccc(C(=O)NCCNC(=O)c2cccc(Cl)c2)c1 | active: 20 µM |

| SMILES | Potency |
| --- | --- |
| CCN1CCN(C2(C(=O)NCCc3ccccc3)Cc3ccccc3C2)CC1 | inconclusive: 89.1 µM [inhibitor, single point] |
| O=C(COc1cccc(-n2cnnc2)c1)NC1CCCc2c1[nH]c1ccccc21 (stereo not drawn) | inconclusive: 89.1 µM [inhibitor, single point] |
| O=C(NC1CC1)c1nc2cccnc2n(Cc2ccccc2)c1=O | inactive |
| C/C(=C\c1ccccc1)CN1CCCCC12Cc1ccccc1CNC2=O (stereo not drawn) | inconclusive: 56.2 µM [inhibitor, partial curve, poor fit] |
| CN1CCCC2(CCN(C(=O)c3sccc3S(N)(=O)=O)C2)C1=O (stereo not drawn) | inactive |
| COc1ccc(CCNC(=O)c2nnn3c2COC(c2ccc(C)cc2)C3)cc1OC (stereo not drawn) | inconclusive: 17.8 µM [inhibitor, full curve, poor fit] |
| COc1ccc(-c2cnc([C@@H]3COCCN3C3CCCCC3)[nH]2)cc1 | active: 31.6 µM |
| CC1=C[C@@H](CN2CCC(C(N)=O)CC2)[C@H](C(C)C)C[C@H]1Cc1nnc(-c2ccncc2)o1 | inconclusive: 126 µM [inhibitor, single point] |
| O=C(NCc1cccc(C(F)(F)F)c1)c1cc(-c2cc(Cl)cc(Cl)c2)c2nncn2n1 | inactive |
| COc1ccc(-c2noc([C@@H](C)NS(=O)(=O)CC(C)C)c2C(=O)O)cc1 | inactive |
| COc1ccc(-c2cc(N3CCC(NC(=O)Cc4ccccc4C)CC3)n[nH]2)cc1 | inconclusive: 89.1 µM [inhibitor, single point] |
| O=C1CCC2(CNC(=O)c3ccncc3)CCCC=C2N1 (stereo not drawn) | inactive |
| COc1cc2c(cc1OC)C(CNC(=O)c1ccccc1)N(C(=O)Nc1ccccc1F)CC2 (stereo not drawn) | inconclusive: 56.2 µM [inhibitor, partial curve, poor fit] |
| Cc1nnc(-c2cc(NCc3cccs3)ccn2)n1C1CCCCC1 | inconclusive: 100 µM [inhibitor, partial curve, poor fit] |
| CC(=O)NC1CCN(c2ccnc3ccnn23)C1 (stereo not drawn) | inactive |
| O=C1CC2(CCN(C(=O)C3CCCN(C(=O)NC4CCCC4)C3)CC2)Oc2ccccc2N1 (stereo not drawn) | inconclusive: 50.1 µM [inhibitor, partial curve, poor fit] |
| O=Cc1ccccc1-c1cccc(O)c1 | inconclusive: 79.4 µM [inhibitor, partial curve] |
| Cc1ccc(N2Cc3c(NCCc4ccc(F)cc4)ncnc3N(C)CC2=O)cc1 | inconclusive: 50.1 µM [inhibitor, partial curve, poor fit] |
| O=C(c1ccccc1OCC1CCCN(CC2=Cc3ccccc3OC2)C1)N1CCCCC1 (stereo not drawn) | inconclusive: 50.1 µM [inhibitor, partial curve, poor fit] |
| CC(=O)NC1(C)CCN(Cc2ccccc2-c2ccccc2Oc2ccccc2)C1 (stereo not drawn) | inconclusive: 70.8 µM [inhibitor, partial curve, poor fit] |
| O=C(Cn1nc2c(cc1=O)CCCCC2)Nc1nc2c(s1)CCCC2 | inconclusive: 89.1 µM [inhibitor, single point] |
